Measured values as given in the RNAGym collection of RNA variant scans (doi:10.7554/elife.90254).
Read counts are not given, so values of variants with three or more changes are uncertain.

B1: LINE1-full (parent)
chain: UACGUAGGUGGUUUUCCCCUGAUAGUGCUAAGGGGGCCUGGAAGUUUGGACUGGGCAGAGCUCAACACAGCGUGGCAAAGUGGCUGUGGCUAGACUGCCUCUCUGGAUUCCUCGUCACUCAGCAGGGCAUCUCUGAGAGAAAUGCC

Variants of: B1
Experiment: self-cleavage, relative activity (ratio to wild type); higher = more cleavage; in vitro, sequencing; the parent is a self-cleaving ribozyme

Row | Variant | self-cleavage
1 | U12G U13G U47C A59G | 2.3
2 | U13A A22G A78U A94G A121U | 0.26
3 | U12C A69C A142G | 0
4 | U12C U20C G34A G49A | 1.16
5 | U12C A77U U134C | 1.19
6 | U12C U47C A69G G125A A141U | 0.47
7 | U12G A94G U104C A138G | 0.66
8 | U12G U52C A129G | 1.04
9 | U12G C68U U112A | 0.32
10 | U12C U45C U134A A136G | 2.49
11 | U12C U26A U102C U104C A141G | 0.45
12 | U12C C51U A121U | 1.16
13 | U12G A124G A129U A138G | 1.71
14 | U12C U13A A59G A78U A136G | 0.1
15 | U12C U87A U112C A129U | 0.04
16 | U12C U62C A78G | 0.2
17 | U12C G25U A69G A142G | 0.48
18 | U12G U85C A117G | 0.26
19 | U13A A30G A42G | 0.61
20 | U13A A42G U46A G53A U85C A124U | 0.04
21 | U12C G48A A117G | 0.8
22 | U13A A31G A43U A141G | 0.97
23 | U12G U23C G54A U81A U91A | 0.43
24 | U12C A64G U87A U143C | 0.15

Row | Variant | self-cleavage
25 | U12G U45C A64G | 0
26 | U12C U39A U81A G89A U112A A141G | 0.04
27 | U12C U62A U73C | 0
28 | U12C U47A G54A U81A | 0.56
29 | U12C U20A U109C | 1.47
30 | U12G U29A G72C A77U U85C A140G | 0.18
31 | U12G G34U U47C | 1.04
32 | U12C U85A C98U | 0.04
33 | U12G U45A A67G | 0.45
34 | U12C U39C U62A A141G | 0.03
35 | U12G A67G G89A U104G | 0.33
36 | U12C U14C A42U | 0.88
37 | U12C U29C U109C G127A A129U | 0.69
38 | U12C U14C G48U U96C U108C | 0.42
39 | U12C U115C A124U A141G A142C | 0
40 | U12G G32C G60A | 0.16
41 | U12C A94G C118U A138G | 0.27
42 | U12G U13G U87A A121G | 0.29
43 | U12C U20C G88A | 0.16
44 | U12C U102A U109C A138G | 2.42
45 | U12G U20C A22U A107G U130C | 1.84
46 | U12C C18A U20C U109C | 0.63
47 | U12C A65G C123U | 0.04
48 | U12C U108A C111U A121U | 2.14

Row | Variant | self-cleavage
49 | U12G A57G C84G A124G A129U C133A | 0
50 | U12C U52C U134C | 1.84
51 | U12G A77G U134A | 1.34
52 | U12G U29C G80U U100A A107G C123U | 0.94
53 | U12C U29C A31G A124G | 1.15
54 | U12C U15C G125U | 1.37
55 | U12C U87A C133U A136G | 0.09
56 | U12C G49A A57G U96C | 2.68
57 | U12C U20C A57G G83A | 1.48
58 | U12C U73G A136G | 1.41
59 | U12C U47C A69G A129U | 0.33
60 | U12C C18U U52C A59G A64G C71U C131G | 0.38
61 | U12C U62A U73A U104A U108C U115G | 0
62 | U12C U81C U108C | 2.45
63 | U12G U26A U47A A138G | 1.21
64 | U12C G70U U87C U104A | 0.06
65 | U12G U102C A142G C146U | 1.84
66 | U12C A77G A124U | 2.18
67 | U12C A77G A124G | 0.54
68 | U12G A42G U46A U100C | 1.37
69 | U12G A94G U134C A136G | 0.38
70 | U12C U52A A107G | 0
71 | U12G G40A A69G | 0.72
72 | U12C C123U A141G | 1.29

Row | Variant | self-cleavage
73 | U12C U26C U109C U112A U119A | 1.02
74 | U12C A78U A136G | 1.97
75 | U12G C38A A42U | 0.53
76 | U12C C37G A59U U109A | 1
77 | U12C C111U U132C | 2
78 | U12G C51U U104A | 1.58
79 | U12G G55A A69U C95U U130C | 0.05
80 | U12G U39C U115A | 0.78
81 | U12C G32A U104G | 0.93
82 | U12C U14C U100C | 0.72
83 | U12C U26A U87G | 0.58
84 | U12C U14C U52C A64U U87A | 0.21
85 | U12C G49A A65U U87A U96C C99U C101U U119C U130C | 0.01
86 | U12C U102A U104A | 1.82
87 | U12C A79G U112A A140G | 1.14
88 | U12C U13G A136C | 0
89 | U12C U39C A43G G60A | 0.09
90 | U12G U39C A92U U132C | 0.82
91 | U12G A64G A140G | 0.22
92 | U12G U47A A59U A129G | 1.18
93 | U12C A79G G144C | 1.2
94 | U12C U39A U96C C146A | 0.45
95 | U12C U46C G49A G89A A138U | 0.06
96 | U12C U20C U46A A141G | 1.11

Row | Variant | self-cleavage
97 | U12G C18U U91C | 0
98 | U12C A117G U119A | 1.22
99 | U12C U29C U45C U130C | 1.31
100 | U12G U20A U45A U132C A138G A142G | 0.88
101 | U12C U46C A140G | 0.35
102 | U12C A69U G80U U104C A129U | 0.23
103 | U12C U20A A65G | 0.06
104 | U12G G80A G105U U119C U134C | 2.77
105 | U12G G55A U112C U143C | 0.35
106 | U12G U39A U130C | 1.36
107 | U12C C68U U102C | 0.25
108 | U12C A77G U100C A136C | 1.25
109 | U12C U85A U96C | 0.08
110 | U12C C51U A78U G83U | 1.46
111 | U12C C71U A78U A94G U134C A142G | 0.22
112 | U12C U13C A22G G97A A107G | 0.22
113 | U12G A22U G34C C118U | 1.11
114 | U13A A22U A31G | 0.56
115 | U12G A57G U115C | 2.3
116 | U12C U20C G49A | 1.04
117 | U12C G21A U130C | 1.37
118 | U12C U15A C131U A136G | 0.77
119 | U12G A42G U85A C133A A142G | 0.12
120 | U12C U13C C76U U87C U109C | 0.34

Row | Variant | self-cleavage
121 | U12G U100C A129U | 1.04
122 | U12G C17A G33U A43G A141G | 0.95
123 | U12G A69G A136G A142G | 1.05
124 | U12C U13C U104C | 1.11
125 | U12C A64U C68U U96A U109C G126A A141G | 0
126 | U12C C71U A94G | 0.12
127 | U13A A22C G127C | 1.22
128 | U12C A94U G114A | 0.3
129 | U12C U85A A117C | 0.07
130 | U12C G32A C63A | 0.09
131 | U12G U26C U112C U119A A142G | 1.15
132 | U12C A69U U85C G125A A140G | 0.35
133 | U12C U130A A141G | 1.23
134 | U12C U85C U91C | 0.31
135 | U12C U39A A69G A107U G135A A141G | 0.88
136 | U12G U26C C66U | 0.1
137 | U12C U14C A22G U91C | 0
138 | U12G A22U U102C A107G A142G | 0
139 | U12G G53A A65G | 0.11
140 | U12G A64G A67G U108A | 0
141 | U12C U81A A136G | 2.35
142 | U12G U45C U52A A64G U100C | 0
143 | U12G A22G A65U C76U A79G G114A | 0.11
144 | U12C U45C U73A A138G | 2

Row | Variant | self-cleavage
145 | U12C G34A A65G U109C | 0
146 | U12C A65G U73C U104A | 0
147 | U13A A24U A30G U62C U73A C99U | 0.12
148 | U12G G32A A43G U100A | 1.09
149 | U12C U96A A117U A124U | 0.12
150 | U12C U14C A69U U100C U130C | 0.37
151 | U12C U39C U73C A92G C128G C131U | 0
152 | U12G U13C A140G | 0.48
153 | U12C U104A U108C U134A | 1.81
154 | U12G U115C A142C | 0.98
155 | U12G C17A U143C | 0.58
156 | U12C C66A U130C | 0.03
157 | U12C U15C C113G | 2.3
158 | U12G A77G U85C | 0.5
159 | U12C U52G U96C | 1.93
160 | U12C U87C G105A | 0.2
161 | U12G C110A U132C | 0.96
162 | U12C U23A U39C | 1.41
163 | U12C A69C A79G | 0.31
164 | U12G U15C U26A U62G | 0.55
165 | U12G A43G U100A A141G | 0.89
166 | U12C G53A A65U U91C A140U A142G | 0.06
167 | U12C U26A C66A U85C | 0.08
